Target: SARS-CoV-2 Wuhan-Hu-1 RBD (SARS-CoV-2 Wuhan-Hu-1)
Assay: BLI
Conditions: both partners purified

B1: V029 (antibody, V domains shown)
VH: QVQLVESGGGVVQPGRSLRLSCAASGFTFNSYGMHWVRQAPGKGLEWVAVISYDGTNKYYADSVKGRFTISRDNSKNTLYLQMNSLRAEDTAVYYCAKDSEDCSSTTCYQDYWGQGTLVTVSS
VL: [about 100 residues cut from this listing]FGPGTKVDIK
notes: IgG; donor BRA14; source: recombinant monoclonal IgG, produced and purified as previously described
Kd: 12.1 nM

Reference: PMC9270183 (The Journal of Experimental Medicine, 2022)
